The RNAGym collection of RNA variant scans (doi:10.1073/pnas.2313332121)
Variants at the floor of the assay are shown more often than the library holds them.

B1: TPR 5TU (parent)
chain: GGAUCUUCUCGAUCUAACAAAAAAGACAAAUCUGCCACAAAGCUUGAGAGCAUCUUCGGAUGCAGAGGCGGCAGCCUUCGGUGGCGCGAUAGCGCCAACGUUCUCAACUAUGACACGCAAAACGCGUGCUCCGUUGAAUGGAGUUUAUCAUG

Variants of: B1
Assay: polymerase ribozyme fitness, log enrichment relative to wild type (log ratio); higher = more active; in vitro selection for triplet polymerase activity
Procedure, shortened: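 Mutant libraries for each subunit of a heterodimeric triplet polymerase ribozyme were made by PCR and then transcribed. Each library underwent one round of in vitro selection in triplicate: annealing with a biotinylated primer, the partner subunit and triplets, frozen incubation at −7 °C, gel excision of extended constructs, streptavidin-bead capture and RT-PCR. Input and output libraries were Illumina-sequenced, and only genotypes with ≥10 input reads and ≥1 read per output were kept. Fitness is the logarithm, base 2, of genotype enrichment over wild-type enrichment, computed from inverse-variance-weighted replicate averages.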

Variant	polymerase ribozyme fitness (log ratio)
U6A C14U G65U A91G U148A	≤ -4.2
U6A U13C A24C C51U A91G C108G U144A	≤ -4.2
U6C A40G A49G G83U G88A U101G	≤ -4.2
C5U C14U A19U C76U G84A G92A U101A G124A	≤ -4.2
C5U C10A A12G C85A C105U C132U U139A G143C	≤ -4.2
U6G A26U C93U	-2.39
U6A U9A C87A A107G U144A	≤ -4.2
U6C U45G U55A U61G C105U U127A	≤ -4.2
U6A A28G A73G C93G C99A C131A	-4.19
C5U C10G G84U C99G A147C	≤ -4.2
U6C A19U G25C G50A C54G U56A C76U C93A G100A A106U G140A A147G	≤ -4.2
U6A A19G C57A C72U A115C A122U G124A	≤ -4.2
C5G U13C C51G G84C G126U U146A	≤ -4.2
U6G A26U G84C	-2.97
U6G A40U U53A U55G C76A A97U A106G A147C A150C	≤ -4.2
C5U A23C C35U C54U U77G G83A G92A C125G	≤ -4.2
C5U C14G G34U G86U A98G C132U	≤ -4.2
C5U G25C C43G G65U C87A C95U	≤ -4.2
C5U A22U C85A U135A	-0.0168
U6G A17C A52U U55A C96A U135G	≤ -4.2
U6G A19G U55A G71A G80A G92C A107G	≤ -4.2
C5U A29C G34A A37C U45G U61A C69A C87G	≤ -4.2
C5U A17G G58A G83A U109C A115U	≤ -4.2
U6C C36U U61A A98U G133U G140A	≤ -4.2

Variant	polymerase ribozyme fitness (log ratio)
C5G U55G C79G C85U U130G	≤ -4.2
U6C G124C C129A	-4.16
C5U U53A C63A C85U C93G C132U	≤ -4.2
U6A A60C A142G	-3.03
U6A C32A A89U A91C G124U A150G	≤ -4.2
U6C C8A C14A A20U A28U A49G C95U C114U A119U G141U U151G	≤ -4.2
C5U A23U A28U C105G A120U U148A	≤ -4.2
U6A A52G G58A G71A C85G G126U U135G	≤ -4.2
C5G U6G A52U G65C C76U U78G C87A C103G U135A G140A	≤ -4.2
C5U A41U G83A	-1.02
U6G A21U U56G G74C A113U	≤ -4.2
U6C C14U C38U U61A U145C	-4.04
U6C U31G G46C A47C G133U	≤ -4.2
U6C C8U G11A A20U G48U G83A C99U U135A G143U	≤ -4.2
C5U G50C C76U C87A U90G G126U	≤ -4.2
U6C C38U C57U G59C C95U A107G C114G	≤ -4.2
C5U C8A C18G A26C C79G G84A C105G G128U	≤ -4.2
U6G A47U U61G C69A	≤ -4.2
U6G A23U C51A U55G A115U	≤ -4.2
U6G A52U A64G G84A	≤ -4.2
U6A G58C G94A	-0.942
C5U A52U A64C G70C C85A C116G A122U C125U A150G	≤ -4.2
C5U G11A U55A G81A C87A C116G U139A A150G	≤ -4.2
U6A C96U A97U C103A C132U	≤ -4.2

Variant	polymerase ribozyme fitness (log ratio)
C5U A24G C38U G58C G59C C69U C85A C129A U135G G143C U145A U148A	≤ -4.2
C5U A20U C57U G68A C72U G92A	≤ -4.2
U6A U7A A29C C43A G50C C57A C108G U134G	≤ -4.2
U6C A24G U31A A52C C87U U90G G92U C93A	≤ -4.2
C5U C14G A21G A41C G42A U56C C72U G88A U104G	≤ -4.2
U6G A28U U44A C96G	≤ -4.2
C5U A24U C27G G58C C76U G80A C85U	≤ -4.2
U6A A37G A64U C79A	≤ -4.2
C5G U31G A40U A47U G68A A73G C96A C99U U111A	≤ -4.2
U6A A12U G42C U82A G84A A119G G143A	≤ -4.2
C5U A37U G50A A60G G83C C85U G140C	≤ -4.2
C5U C32A C116U G124C	≤ -4.2
C5G U15A U45G U82C G92A A150U	≤ -4.2
C5U C27U C63U C79A C85U G86A U102A	≤ -4.2
U6C G117C	-0.247
U6C C54U G59A A60U C95U G128U U130G	≤ -4.2
U6C A16G C35U A91U	≤ -4.2
U6A C38U U61A U82C G86A G126A	≤ -4.2
C5U A41C U44A A49C U55A A64U C93G C95U C118U G126A	≤ -4.2
U6A C18U U45G U82A C95A C123G A150G	≤ -4.2
U6G A30C	≤ -4.2
C5U U45A A47C G62U C69U	≤ -4.2
U6G A28U A41G G88C G143A U144C U146G	≤ -4.2
U6G A24U C79A G84U C85U G117U G141A	≤ -4.2

Variant	polymerase ribozyme fitness (log ratio)
C5G U44A A60C G83U C105G G124U A142C U148G G152A	≤ -4.2
U6C A66C C72A U77C U82A U111C G126A	≤ -4.2
U6G A37G C38G C95U C116U G136U U139A U146C	≤ -4.2
U6A A28C U44A U45A A49U C85G U144A	≤ -4.2
U6G A120C G136C	-3.69
C5U A91U	-3.99
U6A U44A C87A A89U C96U	≤ -4.2
U6C G11C A21C C36A G50A G88U A91C G136U	≤ -4.2
U6C C8G A23U U31C G50C C75A G84C U151G	≤ -4.2
C5U A20C G59A A60G C69A A98G	-2.12
U6A A37U C85U C118U C149A	≤ -4.2
C5U G50C A60U G74C G133C	≤ -4.2
U6C A24U G74C G81A C87A U146G	≤ -4.2
C5G G71U C114U C131G G133U C149A	≤ -4.2
U6A G83C A89U G136U A137G	-3.78
C5U A73G C85G	-0.907
C5U U13A A19U A21C C85A A106U U127G	≤ -4.2
C5U C35A C54U C96U U104C	≤ -4.2
C5G U7G C8A A40C A52G C96A C108G G112C U127A	≤ -4.2
U6A C14U U82C G86A	-4.09
U6C U9C C36U G48C C51G	≤ -4.2
U6G A49C U55C	≤ -4.2
U6G A16U A22U A23C C93G A119C	≤ -4.2
U6G A17C C75G A107G U134A U146A	≤ -4.2

Variant	polymerase ribozyme fitness (log ratio)
U6A A23U G59A U78G G81C C93U A97G U102A A115U G152U	≤ -4.2
U6C G83A C114U	-2.57
U6C C96G C105U	-0.764
U6A A28C U31A A41U C51A C57G G59U G80A C103U	≤ -4.2
U6C C35A U56A C72U A91C	≤ -4.2
U6G A12G C36G C72G G80A C132A	≤ -4.2
U6G A19U C27A A30U A41C C87G U144G	≤ -4.2
C5U U53A C75U C85G C131U G140U	≤ -4.2
U6A C27A G68A C75G C95A G100A	≤ -4.2
C5U A29G G94U G124A	≤ -4.2
C5U A19G U61G G83C G92U C96A A119C G133U	≤ -4.2
C5U A21U A26U A29C U82G A89C C95G C99U A138G	≤ -4.2
U6A C27U U44G G48A U78A G81C G86A G140A G143C	≤ -4.2
C5U G46A U61G	-4.13
U6A C14G A20G U78C C96G U139A	≤ -4.2
U6A C32G A52U G86U U102G	≤ -4.2
U6A C18U G50C A52U G86A C87U G88A U111G A150G	≤ -4.2
U6C A17C G50A C75G A89G G92C	≤ -4.2
C5U C38A C75A G88C A91U C114U	≤ -4.2
U6A C51G C54A G80C A137C	≤ -4.2
C5U U6G G50U G58U C79A C93G	≤ -4.2
U6A A17G A22C C32G G59A G67U C129U G136A G143A	≤ -4.2
U6A U56G G62A U77G C99G G100U U139C	≤ -4.2
C5G U7C C8U C38G G48A A60C C75A A120G U135A U146A	≤ -4.2

Variant	polymerase ribozyme fitness (log ratio)
U6A A23U C38U C85G C95G C99G	≤ -4.2
U6G A26C G83U A89U	-3.85
U6A A60G C76A U144C	-0.452
U6C A16U G42C G70C G92C U146A	≤ -4.2
U6C C8A U31A C95U A107U U127G U134G	≤ -4.2
U6G A41G G42A U56A A73G G83U G88A C96G A115G	≤ -4.2
U6A U13A C35G A110G A142G	-3.55
U6A U45A C51U G88U A115G U146G	≤ -4.2
C5U A30U C57A G59A C75G	≤ -4.2
U6A G50C A64G G84U G88A	≤ -4.2
U6A C35G C36A G84U G141A A142G U151G	≤ -4.2
U6A A19G C38G U61A G94C C103G	≤ -4.2
C5U C85U C108G G143A A150G	≤ -4.2
C5G G141C	-0.606
U6G A24C U33A U56G G68C C69U G92A C96G G136U G143U U145A	≤ -4.2
U6A A16U G59A U77A A89U A113U G124A	≤ -4.2
C5G G84U	-2.38
C5U C85G A137C	≤ -4.2
U6G A26C G86C C87U C123G	≤ -4.2
U6A A41G U44G C75A G92A U102A U148C	≤ -4.2
U6G A29C C79A C96G	≤ -4.2
C5U C36U A39C G112U A113U C125U	≤ -4.2
U6C A49G G50U A73C G83C C93G C108U	≤ -4.2
U6C G46U G59C G92C U104A U145G	≤ -4.2

Variant	polymerase ribozyme fitness (log ratio)
U6A A21U U31A G74A	≤ -4.2
U6C U44A A52C U82G C85U A121C U127G C132U	≤ -4.2
U6A A91C	≤ -4.2
U6C U7G G59U G68C U82C G136U	≤ -4.2
U6G A20U C43U A47U G59A G65C A73C G88U C96A A142G	≤ -4.2
U6G A52G G71C C93U C96A U104A	≤ -4.2
C5U U45A A66C C69G C87U	≤ -4.2
U6A G71A C87G G152U	≤ -4.2
U6C A20U C75A C87A A121C U148G	≤ -4.2
C5U U6G A30C A47C G58A G59A C79U G92A	≤ -4.2
U6C C38A A47U C95U G143C	≤ -4.2
U6G A17U A21U A49C C51U C79U G84A C114G	≤ -4.2
C5G U55G G88C U109A A121C	≤ -4.2
C5G U9G A19U A21C C85A U134C	≤ -4.2
U6C C8U A40C G88U C99U U139C G141A C149G	≤ -4.2
C5U C10A A22C A29C C35U A40C C87G C95A	≤ -4.2
C5G U44A A47U G88U U135C	≤ -4.2
U6A A19C A39U A52G C76U C85G A115U	≤ -4.2
U6C A47C G48A U134G	≤ -4.2
C5G U53G G88C U102C U134A A150C	≤ -4.2
U6A G58A C76U G84U C87G	≤ -4.2
C5U G50A A150G	≤ -4.2
U6A G59A C69G C75U A98U C99A	≤ -4.2
